Measurements as given in article PMC4336329 (PLoS ONE, 2015).
In all, about 310,000 compounds went through this assay and about 2,200 (0.71%) showed an effect of 50% or more. The effect is printed as a negative number. The list shows a part of the results.

What follows are compounds tested against human ether-à-go-go-related gene (hERG) potassium channel (human, UniProt Q12809) (assay: primary screen, population patch clamp on CHO cells stably expressing hERG).
Sequence of human ether-à-go-go-related gene (hERG) potassium channel (Q12809 whole entry, looked up): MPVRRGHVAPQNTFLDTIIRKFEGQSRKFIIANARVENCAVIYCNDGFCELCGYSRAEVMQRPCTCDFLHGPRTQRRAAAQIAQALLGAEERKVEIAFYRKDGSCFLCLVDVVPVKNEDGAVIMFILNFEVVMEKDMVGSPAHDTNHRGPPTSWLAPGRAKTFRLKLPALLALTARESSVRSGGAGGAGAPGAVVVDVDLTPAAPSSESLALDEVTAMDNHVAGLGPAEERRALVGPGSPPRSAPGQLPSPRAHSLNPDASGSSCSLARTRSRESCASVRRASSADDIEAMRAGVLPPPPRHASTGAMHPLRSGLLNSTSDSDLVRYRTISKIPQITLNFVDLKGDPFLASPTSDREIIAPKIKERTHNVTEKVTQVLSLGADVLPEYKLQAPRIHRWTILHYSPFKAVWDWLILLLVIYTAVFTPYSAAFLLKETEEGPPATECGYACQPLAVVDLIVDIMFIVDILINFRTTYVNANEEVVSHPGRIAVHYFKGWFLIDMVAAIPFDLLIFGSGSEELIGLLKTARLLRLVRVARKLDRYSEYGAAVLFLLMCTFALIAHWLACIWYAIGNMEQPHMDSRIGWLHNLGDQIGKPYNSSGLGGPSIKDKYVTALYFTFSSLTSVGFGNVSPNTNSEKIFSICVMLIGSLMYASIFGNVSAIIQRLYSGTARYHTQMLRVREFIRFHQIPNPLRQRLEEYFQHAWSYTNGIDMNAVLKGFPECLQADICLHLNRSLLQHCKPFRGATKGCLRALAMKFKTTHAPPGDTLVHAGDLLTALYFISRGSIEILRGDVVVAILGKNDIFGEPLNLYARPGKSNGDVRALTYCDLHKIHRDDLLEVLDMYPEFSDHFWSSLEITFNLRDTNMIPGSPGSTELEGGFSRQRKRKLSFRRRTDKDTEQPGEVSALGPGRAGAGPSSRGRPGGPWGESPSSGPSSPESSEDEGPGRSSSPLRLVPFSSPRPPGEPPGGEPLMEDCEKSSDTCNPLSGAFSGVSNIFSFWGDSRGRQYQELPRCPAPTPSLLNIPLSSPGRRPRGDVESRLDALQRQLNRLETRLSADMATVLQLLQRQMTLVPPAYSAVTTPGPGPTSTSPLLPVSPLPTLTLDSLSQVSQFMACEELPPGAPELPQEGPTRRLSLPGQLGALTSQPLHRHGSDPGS

| Compound | hERG current change (%, negative = inhibition) at 1uM [%] |
| --- | --- |
| CN(C)C1=NCCN1CCCC1CCCC1 | -22.6 |
| CN(C)S(=O)(=O)c1ccc(C(=O)Oc2ccccc2)cc1 | 7.36 |
| Cc1c(NC(=O)CCC(=O)N2CCOCC2)c(=O)n(-c2ccccc2)n1C | 4.78 |
| CC1CCC(C(C)C)C(OCC(O)CNC(C)C)C1.Cl (centres unmarked) | 14.1 |
| Cc1ccc(CCNC(=O)Cn2ncc3c([nH]c4ccccc43)c2=O)cc1 | 13.2 |
| C/C(=N/NC(=O)CNC(=O)COc1ccccc1)c1ccc(Cl)cc1 | 14.6 |
| COc1cccc(Nc2nnc(SCc3cc([N+](=O)[O-])cc4c3OCOC4)s2)c1 | 4.46 |
| O=C(CN1C(=O)S/C(=C\C=C\c2ccccc2)C1=O)Nc1ccc(O)cc1 | 8.04 |
| N#Cc1cc2c(ccc3ccccc32)oc1=O | 14.4 |
| COc1ccc(CNCc2c(F)cccc2F)cc1OC.O=C(O)C(=O)O | 14.6 |
| COc1cccc(CN(C)C(=O)c2ccccc2Sc2ccccc2C#N)c1OC | 31.6 |
| CCc1ccccc1NC(=O)CSc1nnc(-c2ccncc2)o1 | 7.1 |
| NS(=O)(=O)c1ccc(CNC(=O)c2scc3c2CCCC3)cc1 | 5.74 |
| Cc1ccc(C(=O)Nc2ccc(Cl)cc2C)c(Cl)c1 | 11.4 |
| Cc1ccc(NC(=O)/C=C\C(=O)O)c([N+](=O)[O-])c1 | 12.3 |
| Cc1c(C#N)c2ccccc2n1CC(=O)NC(C)c1ccccc1 (centres unmarked) | 4.94 |
| CCOC(=O)N1CCN(C(=O)C2CCN(Cc3ccc(OC)cc3OC)CC2)CC1.O=C(O)C(=O)O | -2.07 |
| Cc1ccc2nc(SCC(=O)N3CCCCCC3)nc(=O)n2c1 | 9.96 |
| C=CCn1c(COc2ccccc2C)nnc1SCC(=O)O | 16.9 |
| CCSC(=O)CCCCCCCCCCCO | 5.67 |
| CC(=O)N1c2ccc(S(=O)(=O)NCCC(=O)NCc3ccc(N(C)C)cc3)cc2CC1C (centres unmarked) | 12.6 |
| O=C(COc1nnc2ccccn12)N1CCN(S(=O)(=O)c2ccccc2)CC1 | 14.7 |
| O=C1Nc2ccc(Cl)cc2C12Nc1ccccc1-c1nnc(SCc3ccccc3F)nc1O2 (centres unmarked) | 4.35 |

| Compound | hERG current change (%, negative = inhibition) at 1uM [%] |
| --- | --- |
| COc1ccc(CCNC(=O)c2cc(C)oc2C)cc1OC | 9.85 |
| CCN(CC)S(=O)(=O)c1ccc(NC(=O)c2ccc(N(C)S(C)(=O)=O)cc2)cc1 | 8.93 |
| CSCCC(NC(=O)COc1ccccc1)C(=O)N1CCN(c2ccccc2)CC1 (centres unmarked) | -1.18 |
| CC(=O)O[C@H]1CC[C@@]2(C)C(=CC[C@H]3[C@@H]4CC[C@H](C5(C)OCCO5)[C@@]4(C)CC[C@@H]32)C1 | 18.1 |
| CC(=O)N1CCc2cc(S(=O)(=O)N3CCCCCC3)ccc21 | 10.6 |
| O=[N+]([O-])c1ccc(S(=O)(=O)N2CCN=C2SCc2ccc(F)cc2)cc1 | 3.19 |
| COc1ccc2[nH]c(C)c(C(=O)CN3CCN(C(=O)c4ccco4)CC3)c2c1 | -7.3 |
| Cc1sc2c(c1C)C(=O)NC(c1ccccc1F)N2 (centres unmarked) | 13.6 |
| Cc1ccc(CNC(=O)c2ccc(N3CCC4(CC3)CC(c3ccccc3)=NO4)c(NC(=O)c3cccc(C)c3)c2)cc1 | 0.306 |
| O=C(NCc1ccc(F)cc1)c1ccc(Br)o1 | 1.43 |
| CSC(=NC(C)c1ccccc1)NS(=O)(=O)c1cccs1 (centres unmarked) | 5.75 |
| CCOC(=O)c1cn2nc(-c3ccc(OC)cc3)cc2nc1C1CCN(C(=O)OC(C)(C)C)CC1 | 14.9 |
| O=C(Nc1ccc(Cl)cc1)N1CCN(Cc2ccc3c(c2)OCO3)CC1 | -4.4 |
| COC(=O)c1cc2c(N)c(C(=O)c3ccccc3)sc2nc1C(OC)OC | 8.89 |
| Cc1nc2nc(SCC(=O)c3ccc([N+](=O)[O-])cc3)[nH]c2cc1Br | 3.41 |
| CC1CCC(NC(=O)COC(=O)C2=NN(c3ccccc3)C(=O)CC2)CC1 (centres unmarked) | 12.4 |
| COc1ccc2cc3c(N)nn(C(=O)c4ccccc4[N+](=O)[O-])c3nc2c1 | -1.02 |
| Cc1onc(-c2ccccc2)c1C(=O)N1CCN(S(=O)(=O)c2ccccc2C(F)(F)F)CC1 | 17.2 |
| CC(=O)C1=C(O)C(=O)N(CC(=O)O)C1c1ccccc1Cl (centres unmarked) | -2.8 |
| Cc1ccc(C)c(C(=O)NCCN(C)C)c1 | 8.76 |
| COCCN1CCN(Cc2cn(C)nc2-c2ccc(Oc3ccccc3)cc2)CC1 | -5.11 |
| CC(=O)N1CCN(c2ccc(NC(=O)c3ccc4c(c3)OCCO4)cc2Cl)CC1 | -26.7 |
| CS(=O)(=O)N1CCC(C(=O)Nc2ccc(F)cc2F)CC1 | 11.3 |

| Compound | hERG current change (%, negative = inhibition) at 1uM [%] |
| --- | --- |
| CS(=O)(=O)c1ccc(-c2cccc(NC(=O)COc3ccccc3)c2)nn1 | 1.8 |
| O=[N+]([O-])c1cccc(C(=S)N2CCN(c3ccccc3)CC2)c1 | 4.86 |
| COc1ccc(C(=O)N2CCN(c3ccc(C)cc3)CC2)cc1OC | -3.98 |
| c1ccc(C(c2ccccc2)N2CCN(c3ccc4ccccc4n3)CC2)cc1 | 3.43 |
| Cc1sc2ncnc(N3CCN(C(=O)c4ccco4)CC3)c2c1C | -13.1 |
| COc1ccc(C(=O)NC(C(=O)NCC2CCCO2)C(C)C)cc1 (centres unmarked) | 12.6 |
| COc1ccc(CN2CCN(CCc3ccccc3)C(CCO)C2)cc1Cn1cncn1 (centres unmarked) | -16 |
| Cc1cc(C)n(/C(=C\N(C)C)C(=O)c2cccc([N+](=O)[O-])c2)n1 | 14.7 |
| Cc1cccc(C)c1OCC(=O)NNC(=O)CCNC(=O)c1ccco1 | 12.8 |
| O=C1c2ccccc2C(O)N1Cc1ccccc1Cl (centres unmarked) | 1.46 |
| S=C=Nc1ccccn1 | -4.99 |
| COc1ccc2[nH]c3c(=O)n(CCN4CCOCC4)cnc3c2c1 | 9.44 |
| CC(C)=CCOc1c2ccoc2cc2oc(=O)ccc12 | 10.6 |
| COc1cc(-c2nc3sc(C)c(C)c3c(=O)o2)cc(OC)c1OC | 18.2 |
| CCN(c1ccccc1)S(=O)(=O)c1ccc(Cl)c(NC(=O)CSc2nncn2C)c1 | 6.62 |
| CN1CCN(/N=C/c2ccc(C#N)cc2)CC1.Cl | -13 |
| Cc1ccc(-n2ncc3c(SCc4ccccn4)ncnc32)c(C)c1 | 12.5 |
| Cc1cc(Cl)ccc1NNC(N)=S | 9.61 |
| CCCCOc1cc(C(=O)NCCN(CC)CC)c2ccccc2n1 | -38.5 |
| O=C(/C=C/c1ccc(F)cc1)NCC1(c2ccccc2)CCOCC1 | -9.73 |
| CCOCCCNc1nc2c([nH]1)c(=O)n(C)c(=O)n2C | 4.69 |
| CC1=Nc2ccc(C)cc2N(Cc2ccccc2)C(=O)C1 | 7.75 |
| CC12C(=O)N(c3ccc(C(=O)N4CCOCC4)cc3)C(=O)C1C1c3ccccc3C2c2ccccc21 (centres unmarked) | 9.81 |

| Compound | hERG current change (%, negative = inhibition) at 1uM [%] |
| --- | --- |
| CS(=O)(=O)N(CCc1ccccc1)CC(=O)N1CCCC1 | 7.81 |
| C/C(=N\OC(=O)c1ccc(Cl)cc1)c1nccs1 | 9.4 |
| C=CCOc1ccccc1C1NC(=O)NC(C)=C1C(=O)NCc1ccccc1 (centres unmarked) | -2.47 |
| O=[N+]([O-])c1cc2c(cc1/C=N\NS(=O)(=O)c1ccccc1)OCO2 | 16.5 |
| O=c1[nH]c2ccccc2c(O)c1-c1ccccc1 | 11.8 |
| O=C(/C=C/NCc1cccnc1)C(F)(F)C(F)(F)F | 13.2 |
| CCOc1ccc(-n2c(C)cc(/C=N/NC(=O)C(N)=O)c2C)cc1 | 10.3 |
| COCC(C)n1c(C)cc(C(=O)CSc2nnc(Nc3ccccc3F)s2)c1C (centres unmarked) | 6.24 |
| Cc1cccc(C)c1NC(=O)C(=O)c1cn(C)c2ccccc12 | 12.5 |
| COc1ccc(C(=O)NCCCNC(=O)c2ccc(C)nc2)cc1 | 21.9 |
| O=C(CCNC(=O)c1ccc([N+](=O)[O-])cc1)NCc1ccco1 | 3.22 |
| Cc1cc(OCC(=O)NCc2cccnc2)ccc1[N+](=O)[O-] | 13 |
| CC(=O)Nc1ccc(S(=O)(=O)Oc2ccc(N3C(=O)C4CCCCC4C3=O)cc2)cc1 (centres unmarked) | 15.5 |
| CC1CCCC(NC(=O)CNC(=O)c2cccs2)C1C (centres unmarked) | 14.8 |
| COc1ccccc1NC(=O)Nc1cc(NC(=O)Nc2ccccc2OC)c(C)nc1C | 14.2 |
| Cc1ccc(-c2nn(-c3ccccc3)cc2C2CC(c3cccs3)=NN2C(=O)CCC(=O)O)cc1 (centres unmarked) | 15 |
| Cc1ccccc1OCCCCCCN1CCNCC1.O=C(O)C(=O)O | 11.7 |
| COc1ccc(C(=O)N2CCC(CCC(=O)Nc3cccc(C)c3)CC2)cc1 | -9.57 |
| O=C(COC(=O)c1cccc(Oc2ccccc2)c1)NCc1ccco1 | 8.45 |
| CS(=O)(=O)N(CC(=O)N1CCC(C(N)=O)CC1)Cc1ccc(Cl)c(Cl)c1 | 3.15 |
